Assay results reported in paper PMC9911399, “Two distinct binding modes provide the RNA-binding protein RbFox with extraordinary sequence specificity”.
Positions count from the first letter of the chain named. Some of the results follow.

T1: RBFOX1 RRM (Homo sapiens, UniProt Q9NWB1 109-208)
T1 sequence: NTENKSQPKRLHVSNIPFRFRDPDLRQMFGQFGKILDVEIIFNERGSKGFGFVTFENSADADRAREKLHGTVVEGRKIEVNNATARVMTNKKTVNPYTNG

B1: CAUCUGA (DNA:RNA)
RNA: GGGAGACCGGAAUUCAGAUUGUCCCAUCUGAUUAAAUCCCGUCGUAGCCACCA
DNA 1: CAATCTGAATTCCGGTCTCCC
DNA 2: TGGTGGCTACGACGGGATT
B2: CAAUCUA (DNA:RNA)
RNA: B1 RNA with U27A, C28U, U29C, G30U
DNA 1: CAATCTGAATTCCGGTCTCCC
DNA 2: TGGTGGCTACGACGGGATT
B3: AGGCGCU (DNA:RNA)
RNA: B1 RNA with C25A, A26G, U27G, U29G, G30C, A31U
DNA 1: CAATCTGAATTCCGGTCTCCC
DNA 2: TGGTGGCTACGACGGGATT
B4: GGGCUGA (DNA:RNA)
RNA: B1 RNA with C25G, A26G, U27G
DNA 1: CAATCTGAATTCCGGTCTCCC
DNA 2: TGGTGGCTACGACGGGATT
B5: UGCAAGU (DNA:RNA)
RNA: B1 RNA with C25U, A26G, U27C, C28A, U29A, A31U
DNA 1: CAATCTGAATTCCGGTCTCCC
DNA 2: TGGTGGCTACGACGGGATT
B6: UCAUGUG (DNA:RNA)
RNA: GGGAGACCGGAAUUCAGAUUGUCCUCAUGUGUUAAAUCCCGUCGUAGCCACCA
DNA 1: CAATCTGAATTCCGGTCTCCC
DNA 2: TGGTGGCTACGACGGGATT
B7: UAGAGAA (DNA:RNA)
RNA: B1 RNA with C25U, U27G, C28A, U29G, G30A
DNA 1: CAATCTGAATTCCGGTCTCCC
DNA 2: TGGTGGCTACGACGGGATT
B8: AAAUCUG (DNA:RNA)
RNA: B6 RNA with U25A, C26A, G29C
DNA 1: CAATCTGAATTCCGGTCTCCC
DNA 2: TGGTGGCTACGACGGGATT
B9: CGUAUGG (DNA:RNA)
RNA: B1 RNA with A26G, C28A, A31G
DNA 1: CAATCTGAATTCCGGTCTCCC
DNA 2: TGGTGGCTACGACGGGATT
B10: AUCCAGC (DNA:RNA)
RNA: B1 RNA with C25A, A26U, U27C, U29A, A31C
DNA 1: CAATCTGAATTCCGGTCTCCC
DNA 2: TGGTGGCTACGACGGGATT
B11: CAUGUCU (DNA:RNA)
RNA: B1 RNA with C28G, G30C, A31U
DNA 1: CAATCTGAATTCCGGTCTCCC
DNA 2: TGGTGGCTACGACGGGATT
B12: CCUACGG (DNA:RNA)
RNA: B1 RNA with A26C, C28A, U29C, A31G
DNA 1: CAATCTGAATTCCGGTCTCCC
DNA 2: TGGTGGCTACGACGGGATT
B13: GUCCAUA (DNA:RNA)
RNA: B1 RNA with C25G, A26U, U27C, U29A, G30U
DNA 1: CAATCTGAATTCCGGTCTCCC
DNA 2: TGGTGGCTACGACGGGATT
B14: CCAAAGA (DNA:RNA)
RNA: B1 RNA with A26C, U27A, C28A, U29A
DNA 1: CAATCTGAATTCCGGTCTCCC
DNA 2: TGGTGGCTACGACGGGATT
B15: UGCCUAG (DNA:RNA)
RNA: B1 RNA with C25U, A26G, U27C, G30A, A31G
DNA 1: CAATCTGAATTCCGGTCTCCC
DNA 2: TGGTGGCTACGACGGGATT
B16: CCUAAAG (DNA:RNA)
RNA: B1 RNA with A26C, C28A, U29A, G30A, A31G
DNA 1: CAATCTGAATTCCGGTCTCCC
DNA 2: TGGTGGCTACGACGGGATT
B17: GCGUUUG (DNA:RNA)
RNA: B6 RNA with U25G, A27G, G29U
DNA 1: CAATCTGAATTCCGGTCTCCC
DNA 2: TGGTGGCTACGACGGGATT
B18: CACUUGA (DNA:RNA)
RNA: B1 RNA with U27C, C28U
DNA 1: CAATCTGAATTCCGGTCTCCC
DNA 2: TGGTGGCTACGACGGGATT
B19: AUCUCAU (DNA:RNA)
RNA: B6 RNA with U25A, C26U, A27C, G29C, U30A, G31U
DNA 1: CAATCTGAATTCCGGTCTCCC
DNA 2: TGGTGGCTACGACGGGATT
B20: CCGCACG (DNA:RNA)
RNA: B1 RNA with A26C, U27G, U29A, G30C, A31G
DNA 1: CAATCTGAATTCCGGTCTCCC
DNA 2: TGGTGGCTACGACGGGATT

The binders below were run against T1, RBFOX1 RRM (assay: EMSA; HiTS-Eq, 1 nM pool, 10 min; buffer printed only for the single-RNA assays: 10 mM Tris pH 7.5, 150 mM NaCl, 3.4 mM EDTA, 0.001% NP-40, 30 C). Settings: tags: His6 N-terminal (pET28a); label: 5' 32P.
How it was run: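 Relative association constants, normalised to the cognate motif, were derived by comparing read counts of each RNA species with those of the control reaction. The RNA sequenced was the free fraction, separated by 8% native PAGE after a 10 min equilibration in 50 µL of 1 nM 5′-radiolabelled RNA (7 randomized nucleotides) with increasing concentrations of purified wild-type or mutant RbFox RRM.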

First: B1
Second: B2
The binding signal of the first is higher: 0.00898 KA relative to UGCAUGU for the first, 0.00161 KA relative to UGCAUGU for the second.

First: B3
Second: B4
The binding signal of the first is lower: 0.0107 KA relative to UGCAUGU for the first, 0.0201 KA relative to UGCAUGU for the second.

First: B5
Second: B6
The binding signal of the first is higher: 0.029 KA relative to UGCAUGU for the first, 0.0157 KA relative to UGCAUGU for the second.

First: B7
Second: B8
The binding signal of the first is higher: 0.00799 KA relative to UGCAUGU for the first, 0.00625 KA relative to UGCAUGU for the second.

First: B9
Second: B10
The binding signal of the first is higher: 0.0107 KA relative to UGCAUGU for the first, 0.00329 KA relative to UGCAUGU for the second.

First: B11
Second: B12
The binding signal of the first is lower: 0.00695 KA relative to UGCAUGU for the first, 0.00849 KA relative to UGCAUGU for the second.

First: B13
Second: B14
The binding signal of the first is lower: 0.00233 KA relative to UGCAUGU for the first, 0.00264 KA relative to UGCAUGU for the second.

Compared with B15, B16 is lower in binding signal: 0.0197 KA relative to UGCAUGU for the first, 0.00242 KA relative to UGCAUGU for the second.

First: B17
Second: B18
The binding signal of the first is higher: 0.0215 KA relative to UGCAUGU for the first, 0.00733 KA relative to UGCAUGU for the second.

Compared with B19, B20 is higher in binding signal: 0.00186 KA relative to UGCAUGU for the first, 0.0481 KA relative to UGCAUGU for the second.
